According to paper PMC4207660, “Identification and Characterization of Hundreds of Potent and Selective Inhibitors of Trypanosoma brucei Growth from a Kinase-Targeted Library Screening Campaign” (PLoS Neglected Tropical Diseases, 2014):

Columns and labels:
ChromlogD assay = settings: reversed-phase HPLC column (Luna C18 (2)), pH 7.4
Experimental: The Chromatographic Hydrophobicity Index (CHI)[22] values were measured using reversed phase HPLC column (Luna C18 (2), Phenomenex, UK) with a fast acetonitrile gradient at starting mobile phase of pH = 7.4. CHI values are derived directly from the gradient retention times by using a calibration line obtained for standard compounds. The CHI value approximates to the volume % organic concentration when the compound elutes. […] The average error of the assay is ±3 CHI unit or ±0.25 ChromlogD.

[1] = tested on: T. brucei brucei parasites (Lister 427 strain); assay: Dose response growth inhibition assay (resazurin, 72 h); type: cell-based; settings: Trypanosoma brucei, 72 h; read-out: pEC50 (converted)
Experimental: Greiner sterile black clear bottom 384-well assay plates were pre-dispensing with 200 nL of compound in each well, from master plates at 1 mM (100% DMSO) containing selection from the GSK compound collection. Controls of 0% response (control 1, 200 nL of 100%DMSO) and 100% response (control 2, 200 nL of 1 mM pentamidine) were included in each assay plate in columns 6 and 18, respectively. Plates containing 200 nL of 100% DMSO were included randomly in the assay, to assess quality through all process. […] After this period, 10 µL of 200 µM resazurin solution in prewarmed HMI-9 were added to each well, and plates were allowed to incubate 2 hours more prior fluorescence reading in a Wallac EnVision Multilabel Plate Reader (Perkin-Elmer). Raw fluorescent data from the Envision plate reader were uploaded into GSK HTS database (ActivityBase). Activity of each well was normalized as a percentage of inhibition per-plate basis using the following equation: [drawing 1]
For dose-response experiments, serial compound dilutions of selected hits from the primary campaign were plotted against compound concentration. Dose response master plates were prepared by 3-fold dilutions (starting with 10 mM DMSO stock solutions), providing 11 concentrations. From these master plates, 200 nL per well was stamped in final assay plates, including the same controls describe in the primary single shot assay. […]

Structure (SMILES)	logD (ChromlogD assay)	EC50 [1] [nM]
CS(=O)(=O)Nc1ccc(-c2c(-c3cccnc3)oc3ncnc(N)c23)cc1 [NEU-0001100]	1.72	692
CC[C@@H]1COCCN1c1cc(-c2cc(OC)c3c(N)n[nH]c3c2)nc(N)n1 [NEU-0001102]	2.62	447
